# The other results are listed elsewhere or left out. The main result of the screen is listed elsewhere. These columns were measured beside it and carry no call.
# Tests used:
# Assay in all cases: Primary Screen for Target Class Profiling of Small Molecule Inhibitors of Methyltransferases
# [1] = molecular target: Glycine N-methyltransferase (Homo sapiens) (UniProt Q14749); conditions: purified enzyme, MTase-Glo SAH luminescence; measured here: GNMT inhibition; at 40 µM; stronger effect = lower value
# Method in brief: (§1)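 Each enzyme was assayed with SAM and its substrate. SAH formation detected by MTase-Glo luminescence; single-point 40 uM screen[…].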
# [2] = molecular target: Guanidinoacetate N-methyltransferase (Homo sapiens) (UniProt Q14353); conditions: purified enzyme, MTase-Glo SAH luminescence; measured here: GAMT inhibition; at 40 µM; stronger effect = lower value
# Method in brief: as §1
# [3] = molecular target: Histamine N-methyltransferase (Homo sapiens) (UniProt P50135); conditions: purified enzyme, MTase-Glo SAH luminescence; measured here: HNMT inhibition; at 40 µM; stronger effect = lower value
# Method in brief: as §1
# [4] = molecular target: Nicotinamide N-methyltransferase (Homo sapiens) (UniProt P40261); conditions: purified enzyme, MTase-Glo SAH luminescence; measured here: NNMT inhibition; at 40 µM; stronger effect = lower value
# Method in brief: as §1
# [5] = molecular target: Phenylethanolamine N-methyltransferase (Homo sapiens) (UniProt P11086); conditions: purified enzyme, MTase-Glo SAH luminescence; measured here: PNMT inhibition; at 40 µM; stronger effect = lower value
# Method in brief: as §1
# % is scaled to controls: 0 for no effect and ±100 for the full control effect.
Compound,"activity change, negative = inhibition [1] [%]","activity change, negative = inhibition [2] [%]","activity change, negative = inhibition [3] [%]","activity change, negative = inhibition [4] [%]","activity change, negative = inhibition [5] [%]"
COc1cc2c(Nc3cc(F)c(Cl)c(Cl)c3)ncnc2cc1OCC1CCCN(C)CCC1,-63.3,-59.2,-86.7,-80.4,-74.9
COc1ccc(N2C(=O)c3cc4oc(C)cc4n3CC2(C)C(=O)NC2CCCCCC2)cc1Cl (configuration not stated),6.72,0,8.69,1.4,2.67
O=C(NC1CC1)[C@@H]1C[C@H](Oc2cccnc2)CN1C(=O)c1ccccn1,-0.127,-0.535,1.52,-7.93,10.8
Cc1ccc(CNC(=O)C2CCCN(c3cnn(Cc4ccccc4)c(=O)c3)C2)o1 (configuration not stated),-5.76,-0.267,-0.631,-4.32,-1.46
Cc1ccc2c(c1)c(-n1cccc1)c1n2CC(C)(C(=O)NC2CCCCC2)N(Cc2cccnc2)C1=O (configuration not stated),-7.14,0,-3.37,-18.9,-2.48
CCCn1c(=O)c2cc(Cl)ccc2n2c(=O)n(CC(=O)Nc3ccc(C)cc3Cl)nc12,-1.12,-1.5,3.37,0.637,-2.68
COc1ccccc1CN[C@H]1CC(C)(C)[C@@H]2C[C@@](C)(O)CC[C@]12CCC(=O)NCCc1c[nH]c2ccccc12,-14.5,-6.22,-42.8,-15.9,-1.08
CN(c1ccccc1)S(=O)(=O)C1CCS(=O)(=O)C1 (configuration not stated),-4.98,-2.59,-3.05,-9.9,6.19
COc1cc2nc(N3CCCCC3)nc(NC3CCN(C)CC3)c2cc1OC,-5.1,,-85.9,-4.46,17.4
CC(=O)O[C@@H]1[C@H]2[C@@H](OC(=O)c3ccccc3)[C@@H](C)C[C@]2(O)[C@H](OC(C)=O)[C@@]2(C)[C@@H]3CC(C)(C)C(=O)[C@]3(OC(C)=O)C[C@@]12C,-1.18,-6.11,6.53,-21.2,0.328
Cc1ccccc1NC(=O)CSc1nnc2n(CCc3ccccc3)c(=O)c3ccccc3n12,1.13,0,6.41,0.324,3.36
O=S(=O)(NCCn1c(CCc2ccccc2)nc2ccccc21)c1ccc2c(c1)CCCC2,-2.48,-1.99,2.31,-19.6,-0.589
O=c1cc(N2CCOCC2)oc2c(N3CCN(c4ccccn4)CC3)nccc12,-4.26,-0.661,-2.82,-29.9,-0.805
CCOc1ccc(CNC(=O)CNC(=O)C2(C)Cn3c(cc4ccccc43)C(=O)N2C)cc1 (configuration not stated),3.75,0,8.47,0.551,5.68
CC(C)OCCCNC(=O)C1(C)Cn2c(cc3ccccc32)C(=O)N1Cc1ccc2c(c1)OCO2 (configuration not stated),-2.98,4.86,-0.241,4.48,-0.605
CCNc1ncc(C(=O)N[C@H](C2CCNCC2)C2CC(O)C2)cn1 (some centres not stated),-1.6,2.27,-23,-4.13,-18.1
CC/C=C\[C@H](O)[C@H](O)C1=C(C)C(=O)[C@]2(O1)C(=O)N[C@@](OC)(C(=O)c1ccccc1)[C@@H]2O,-2.97,1.61,1.1,-9.06,-2.14
COCC1(CNS(=O)(=O)c2ccc(Cl)cc2)C[C@@H](O)[C@@H](O)C1 (some centres not stated),-2.3,0.395,-22.5,-17.7,-9.63
O=C(CCNNC(=O)c1ccncc1)NCc1ccccc1,-2.97,5.07,2.18,-5.1,4.97
CCOC(=O)C1CCN(c2nc3c(S(=O)(=O)c4ccccc4)nnn3c3ccccc23)CC1,-6.07,4.46,-2.92,-4.77,-2.56
CC(C)=CCc1cc(O[C@@H]2O[C@H](CO[C@@H]3OC[C@](O)(CO)[C@H]3O)[C@@H](O)[C@H](O)[C@H]2O)ccc1O,4.62,2.85,9.11,-9.7,-1.46
Cc1nc2c(c(C)c1CCC(=O)N1CCN(c3ccccc3)CC1)c(=O)n(C)c(=O)n2C,,-9.44,,-11.7,0.478
Fc1ccccc1CNCc1ccc(-c2ccnc3[nH]ccc23)cc1,-0.904,-0.075,-25.2,-36.1,-17.3
Cc1cccc(CCNC(=O)CCc2nnc3n(Cc4ccccc4)c(=O)c4ccccc4n23)c1,-10.2,5.09,-1.85,-16,-0.88
Cc1cnc(-c2ccccc2C(C)C)nc1NCc1ccc(-n2ccnn2)cc1,-4.22,-11.6,0.311,-27.5,-7.66
O=C(NCC1CCN(c2cc(-c3ccc(Cl)cc3)[nH]n2)CC1)c1ccc(=O)[nH]c1,-15.2,-13.5,-9.44,-22.5,-19.5
CC1CCC2C(C)(C)[C@H](O)CC[C@]2(C)C12Cc1c(O)cc3c(c1O2)CN(C(CCC(=O)O)C(=O)O)C3=O (some centres not stated),0,1.77,-3.2,-9.94,1.54
CCCn1c(=O)c2[nH]c(C3CCCC3)nc2n(CCC)c1=O,-6.18,0.431,-3.48,-13.1,-3.71
Cc1ccc(C)c(N2C(=O)c3cc4sccc4n3CC2(C)C(=O)NC2CCC(C)CC2)c1 (configuration not stated),2.7,0,3,2,-2.52
